Measured values reported in the supplement of paper PMC8728848.
Some of the results follow.

What was measured:
Experiment in all cases: glycan array binding signal (z-score within array); higher = stronger binding
Conditions in all cases: glycan notation: IUPAC condensed, linker removed
[1] = molecular target: Fuc(a1-2)[GalNAc(a1-3)]Gal(b1-3)GlcNAc(b1-6)GalNAc
In short: (§1)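 Negative Z-scores can be read as non-binding. The Z-score is calculated within each array and then averaged across arrays of one protein sequence at different concentrations or buffers and across linkers. Arrays, 3228 in all, were curated from the Consortium for Functional Glycomics database and kept only where the protein sequence was available.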

[2] = molecular target: Fuc(a1-2)[GalNAc(a1-3)]Gal(b1-4)Glc
In short: as §1

[3] = molecular target: Fuc(a1-2)[GalNAc(a1-3)]Gal(b1-4)GlcNAc
In short: as §1

[4] = molecular target: Fuc(a1-2)[GalNAc(a1-3)]Gal(b1-4)GlcNAc(b1-2)Man
In short: as §1

[5] = molecular target: Fuc(a1-2)[GalNAc(a1-3)]Gal(b1-4)GlcNAc(b1-2)Man(a1-3)[Fuc(a1-2)[GalNAc(a1-3)]Gal(b1-4)GlcNAc(b1-2)Man(a1-6)]Man(b1-4)GlcNAc(b1-4)GlcNAc
In short: as §1

[6] = molecular target: Fuc(a1-2)[GalNAc(a1-3)]Gal(b1-4)GlcNAc(b1-2)Man(a1-3)[Fuc(a1-2)[GalNAc(a1-3)]Gal(b1-4)GlcNAc(b1-2)Man(a1-6)]Man(b1-4)GlcNAc(b1-4)[Fuc(a1-6)]GlcNAc
In short: as §1

[7] = molecular target: Fuc(a1-2)[GalNAc(a1-3)]Gal(b1-4)GlcNAc(b1-3)Gal(b1-4)GlcNAc
In short: as §1

[8] = molecular target: Fuc(a1-2)[GalNAc(a1-3)]Gal(b1-4)GlcNAc(b1-3)Gal(b1-4)GlcNAc(b1-3)Gal(b1-4)GlcNAc
In short: as §1

[9] = molecular target: Fuc(a1-2)[GalNAc(a1-3)]Gal(b1-4)GlcNAc(b1-3)GalNAc
In short: as §1

[10] = molecular target: Fuc(a1-2)[GalNAc(a1-3)]Gal(b1-4)GlcNAc(b1-3)[Fuc(a1-2)[GalNAc(a1-3)]Gal(b1-4)GlcNAc(b1-6)]GalNAc
In short: as §1

[11] = molecular target: Fuc(a1-2)[GalNAc(a1-3)]Gal(b1-4)GlcNAc(b1-6)GalNAc
In short: as §1

[12] = molecular target: Fuc(a1-2)[GalNAc(a1-3)]Gal(b1-4)[Fuc(a1-3)]GlcNAc
In short: as §1

[13] = molecular target: Fuc(a1-2)[GalNAc(a1-3)]Gal(b1-4)[Fuc(a1-3)]GlcNAc(b1-3)GalNAc
In short: as §1

[14] = molecular target: Fuc(a1-2)[GalNAc(a1-4)]Gal(b1-4)GlcNAc
In short: as §1

[15] = molecular target: Fuc(a1-2)[GalNAc(b1-3)]Gal
In short: as §1

[16] = molecular target: Fuc(a1-3)GlcNAc
In short: as §1

[17] = molecular target: Fuc(a1-3)[Gal(b1-4)]Glc6S
In short: as §1

[18] = molecular target: Fuc(a1-3)[Gal(b1-4)]GlcNAc
In short: as §1

[19] = molecular target: Fuc(a1-3)[Gal(b1-4)]GlcNAc(b1-2)Man
In short: as §1

[20] = molecular target: Fuc(a1-3)[Gal(b1-4)]GlcNAc(b1-2)Man(a1-3)[Fuc(a1-3)[Gal(b1-4)]GlcNAc(b1-2)Man(a1-6)]Man(b1-4)GlcNAc(b1-4)GlcNAc
In short: as §1

[21] = molecular target: Fuc(a1-3)[Gal(b1-4)]GlcNAc(b1-2)Man(a1-3)[Fuc(a1-3)[Gal(b1-4)]GlcNAc(b1-2)Man(a1-6)]Man(b1-4)GlcNAc(b1-4)[Fuc(a1-6)]GlcNAc
In short: as §1

[22] = molecular target: Fuc(a1-3)[Gal(b1-4)]GlcNAc(b1-3)Gal(b1-3)[Fuc(a1-4)]GlcNAc
In short: as §1

[23] = molecular target: Fuc(a1-3)[Gal(b1-4)]GlcNAc(b1-3)Gal(b1-4)[Fuc(a1-3)]GlcNAc
In short: as §1

[24] = molecular target: Fuc(a1-3)[Gal(b1-4)]GlcNAc(b1-3)Gal(b1-4)[Fuc(a1-3)]GlcNAc(b1-3)Gal(b1-4)[Fuc(a1-3)]GlcNAc
In short: as §1

[25] = molecular target: Fuc(a1-3)[Gal(b1-4)]GlcNAc(b1-3)GalNAc
In short: as §1

[26] = molecular target: Fuc(a1-3)[Gal(b1-4)]GlcNAc(b1-6)GalNAc
In short: as §1

[27] = molecular target: Fuc(a1-3)[Gal(b1-4)]GlcNAc(b1-6)[Gal(b1-3)GlcNAc(b1-3)]Gal(b1-4)Glc
In short: as §1

[28] = molecular target: Fuc(a1-3)[Gal(b1-4)]GlcNAc6S
In short: as §1

[29] = molecular target: Fuc(a1-3)[Gal3S(b1-4)]Glc
In short: as §1

[30] = molecular target: Fuc(a1-3)[Gal3S(b1-4)]GlcNAc
In short: as §1

[31] = molecular target: Fuc(a1-3)[Gal3S(b1-4)]GlcNAc6S
In short: as §1

[32] = molecular target: Fuc(a1-3)[GalNAc(b1-4)]GlcNAc
In short: as §1

[33] = molecular target: Fuc(a1-3)[GalNAc(b1-4)]GlcNAc6S
In short: as §1

[34] = molecular target: Fuc(a1-4)GlcNAc
In short: as §1

[35] = molecular target: Fuc(b1-3)GlcNAc
In short: as §1

[36] = molecular target: Gal(a1-2)Gal
In short: as §1

[37] = molecular target: Gal(a1-3)Gal
In short: as §1

B1: Cohesin-hMARCO (Homo sapiens) (protein)
chain: LDDLDAVRIKVDTVNAKPGDTVRIPVRFSGIPSKGIANCDFVYSYDPNVLEIIEIEPGDIIVDPNPDKSFDTAVYPDRKIIVFLFAEDSGTGAYAITKDGVFATIVAKVKEGAPNGLSVIKFVEVGGFANNDLVEQKTQFFDGGANVGDTTEPATPTTPVTTPTTTDDLDAASVRIVGSSNRGRAEVYYSGTWGTICDDEWQNSDAIVFCRMLGYSKGRALYKVGAGTGQIWLDNVQCRGTESTLWSCTKNSWGHHDCSHEEDAGVECSVHHHHHH
What does the source list for B1?
glycan array binding signal (z-score) [1]: 0.928; glycan array binding signal (z-score) [2]: -0.364; glycan array binding signal (z-score) [3]: -0.218; glycan array binding signal (z-score) [4]: 0.245; glycan array binding signal (z-score) [5]: -0.299; glycan array binding signal (z-score) [6]: -0.462; glycan array binding signal (z-score) [7]: -0.551; glycan array binding signal (z-score) [8]: -0.553; glycan array binding signal (z-score) [9]: -0.155; glycan array binding signal (z-score) [10]: -0.055; glycan array binding signal (z-score) [11]: 2.17; glycan array binding signal (z-score) [12]: -0.056; glycan array binding signal (z-score) [13]: 0.005; glycan array binding signal (z-score) [14]: 1.89; glycan array binding signal (z-score) [15]: 2.53; glycan array binding signal (z-score) [16]: 0.584; glycan array binding signal (z-score) [17]: -0.395; glycan array binding signal (z-score) [18]: 0.146; glycan array binding signal (z-score) [19]: -0.39; glycan array binding signal (z-score) [20]: -0.32; glycan array binding signal (z-score) [21]: -0.419; glycan array binding signal (z-score) [22]: -0.398; glycan array binding signal (z-score) [23]: -0.186; glycan array binding signal (z-score) [24]: -0.346; glycan array binding signal (z-score) [25]: -0.156; glycan array binding signal (z-score) [26]: -0.03; glycan array binding signal (z-score) [27]: -0.6; glycan array binding signal (z-score) [28]: -0.625; glycan array binding signal (z-score) [29]: -0.021; glycan array binding signal (z-score) [30]: 0.507; glycan array binding signal (z-score) [31]: -0.166; glycan array binding signal (z-score) [32]: 0.044; glycan array binding signal (z-score) [33]: -0.089; glycan array binding signal (z-score) [34]: 0.04; glycan array binding signal (z-score) [35]: 0.117; glycan array binding signal (z-score) [36]: 0.419; glycan array binding signal (z-score) [37]: -0.235
